# Data taken from PubChem BioAssay AID493208 (National Center for Advancing Translational Sciences (NCATS), 2011).
# In all, about 44,000 compounds went through this assay and about 340 (0.77%) were called active. Another 5% or so got no clear call; they are omitted. Calls come from the whole dose curve; as a rule, active = well fitted inhibition curve with a large enough effect; inconclusive = small, poorly fitted or top-dose-only effect; inactive = flat fitted curve, though single readings scatter. This is one part of the list.
# Test: Acumen qHTS Assay for Inhibitors of the mTORC1 Signaling Pathway in MEF (Tsc2-/-, p53-/-) Cells: Sytravon;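 note: plate controls were DMSO for no effect and rapamycin for full effect; nearly all actives have a fitted effect of over 50% in size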
# Conditions: phospho-rpS6 immunofluorescence/PI, 24 h; series mostly up to 38.3 µM; activity change, negative = inhibition: at the top concentration
# Outline: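 Tsc2-/-, p53-/- mouse embryonic fibroblasts (empty-vector line) exposed to compound 24 hrs at 37 C, fixed, immunostained for phospho-rpS6 and counterstained with propidium iodide. Acumen laser scanning gives % positive cells from Alexa 488/PI ratio, thresholded using 7.5 nM rapamycin; PI count gives viability.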
row,Compound,"activity change, negative = inhibition"
1,CC(NC(=O)C1CCN(S(=O)(=O)c2ccc3nc4c(c(C(=O)O)c3c2)CCCC4)CC1)c1ccccc1 (configuration not stated),inactive: 0.266%
2,CC(C)Cn1cc(NC(=O)NCc2ccccc2Cl)c2ccccc2c1=O,inactive: 5.29%
3,O=C(CSc1oc(-c2ccccc2)nc1S(=O)(=O)c1ccccc1)c1ccccc1,inactive: -17.4%
4,Cc1ccc(NC(=O)CCS(=O)(=O)c2cc(Br)cc3c2N(C(=O)C2CC2)CC3)cc1,inactive: -4%
5,COc1cccc(NC(=O)c2ccc3nc(Cc4ccccc4)oc3c2)c1,inactive: 3.78%
6,COc1ccc(-c2cc(C(=O)Nc3sc4c(c3C#N)CCCC4)no2)cc1OC,inactive: -12.5%
7,CCc1ccc(-n2c(SCc3cccc(F)c3)nc3[nH]ncc3c2=O)cc1,inactive: -5.88%
8,Cc1nn(-c2ccccc2)c(OC(=O)C(C)(C)C)c1Sc1ccccc1,inactive: 13.6%
9,Cc1ccc2nc(NCCc3ccccc3)c3nncn3c2c1,inactive: -1.99%
10,Cc1ccc(Cn2c(SCc3ccc(C(=O)NC4CCCC4)cc3)nc3ccncc32)cc1,inactive: -1.35%
11,CCn1c(=O)cc(OCC(=O)Nc2ccc(C)c(F)c2)c2ccccc21,inactive: -6.05%
12,Cc1ccc(-n2c(-c3ccco3)nc3c(cnn3-c3ccccc3C)c2=O)cc1,inactive: -12.6%
13,COC(=O)c1cc(NS(=O)(=O)c2cc(Br)cc3c2N(C(C)=O)CC3)cc(C(=O)OC)c1,inactive: 0.438%
14,CCCC(=O)c1ccc(OC(=O)c2c(-c3ccccc3Cl)noc2C)cc1,inactive: 0%
15,Cc1nnc(NC(=O)C(=O)c2cc(C)n(-c3ccc(C)c(C)c3)c2C)s1,inactive: 0.778%
16,Cc1ccc(C(=O)Nc2ccc3oc(-c4ccncc4)nc3c2)c(Cl)c1,inactive: 1.7%
17,Cc1cccc(-n2c(=O)c3c(c4cc(C)ccc4n3C)n(CC(=O)Nc3ccc(C)cc3C)c2=O)c1,inactive: -5.38%
18,COc1ccc(-c2cn3c(n2)sc2cc(C(=O)Nc4cc(OC)cc(OC)c4)ccc23)cc1,inactive: -0.588%
19,CCc1ccc(-n2c(=O)c3cccnc3n2CC(=O)Nc2ccccc2C(F)(F)F)cc1,inactive: -16.1%
20,N#Cc1c(NC(=O)CS(=O)(=O)c2ccc(Cl)cc2)sc2c1CCCCC2,inactive: -0.024%
21,COc1ccc(-c2ccc(CCC(=O)O)n2CC(=O)Nc2cccc(C(F)(F)F)c2)cc1,inactive: -2.7%
22,COc1ccc(N2CCN(C(=O)c3ccc4c(Cl)c5c(nc4c3)CCCC5)CC2)cc1,inactive: -15.5%
23,CCOC(=O)c1c(NC(C)=O)c2c3c(sc2n1Cc1nc(-c2cccc(C)c2)oc1C)CCCC3,inactive: -11%
24,OCCCc1nc2n(n1)C(c1cccc(Cl)c1)C=C(c1ccccc1)N2 (configuration not stated),inactive: 3.26%
25,COc1ccccc1-c1nc(CNC(=O)Nc2ccccc2)c(C)o1,inactive: -3.38%

row,Compound,"activity change, negative = inhibition"
1,COc1ccccc1C(=O)NC1=NC(c2ccc(Br)cc2)CC(=O)N1 (configuration not stated),inactive: -17.5%
2,COc1ccc(CN2C(=O)N(c3ccc(C)cc3)C(=O)C2CC(=O)Nc2ccccc2)cc1OC (configuration not stated),inactive: -9.89%
3,O=[N+]([O-])c1cc(-c2nc(-c3ccccc3)no2)ccc1NC1CCCC1,inactive: -18.5%
4,CCCc1cc(C(=O)Nc2c(C)nn(Cc3ccc(Cl)c(Cl)c3)c2C)no1,inactive: -3.54%
5,CCc1ccc(-c2nc(CN3CCCC(C(=O)NCc4ccc(C)cc4)C3)c(C)o2)cc1 (configuration not stated),inactive: 0.0715%
6,CCn1cc2nc(SCC(=O)Nc3ccccc3F)n(Cc3ccc(C)cc3)c(=O)c2n1,inactive: -1.69%
7,COc1ccc(-c2cc3nc(C)c(CCC(=O)Nc4cccc(C(F)(F)F)c4)c(C)n3n2)c(OC)c1,inactive: -10.5%
8,Cc1ccc(CNC(=O)Nc2cn(CC(C)C)c(=O)c3ccccc23)cc1,inactive: 5.22%
9,Cc1ccnc(NC(=O)c2c(C)oc3ncn(CC(C)C)c(=O)c23)c1,inactive: 2.98%
10,CN(C(=O)Cn1cc(S(=O)(=O)N2CCN(c3ccccc3F)CC2)c2ccccc2c1=O)c1ccc(Cl)cc1,inactive: 3.85%
11,COCC(C)NC(=O)c1cnn2c(C(F)F)cc(-c3ccccc3)nc12 (configuration not stated),inactive: 4.68%
12,O=C(NCCCN1CCN(c2ccccc2F)CC1)c1cc2c(Cl)nc3ccccc3c2s1,inactive: 0.553%
13,Cc1cc(C)c(NC(=O)CN2c3ccccc3S(=O)(=O)c3ccccc32)c(C)c1,inactive: -19.6%
14,Cc1nnc(SCc2ccccc2Cl)c2cc3sccc3n12,inactive: 2.61%
15,O=C(Nc1sc2c(c1C(=O)Nc1ccc(Cl)cc1)CCCC2)c1cccs1,inactive: 21.4%
16,CCCCCOc1ccc(NC(=O)Cc2csc(C)n2)cc1,inactive: -25.5%
17,Cc1ccc(C(=O)Nc2ccccc2C(=O)O)cc1S(=O)(=O)N1CCCCCC1,inactive: 6.31%
18,CC(=O)c1ccc(NC(=O)c2cc(-c3ccc4c(c3)OCO4)on2)cc1,inactive: -2.78%
19,Cc1ccc(CN2COc3cc(C)c4c(oc(=O)c5ccccc54)c3C2)cc1,inactive: -2.75%
20,COc1cc(OC)c(NC(=O)C(NS(=O)(=O)c2cccc3nsnc23)c2ccccc2)cc1Cl (configuration not stated),inactive: 0.192%
21,CCOc1cc(C2NC(=O)c3c(sc4c3CCN(C)C4)N2)ccc1OC(=O)c1ccccc1Cl (configuration not stated),inactive: 2.88%
22,COc1ccc(-c2[nH]c(-c3ccccc3)nc2SCC(=O)Nc2ccc3c(c2)OCCO3)cc1,inactive: -6.98%
23,CCOC(=O)c1cnc2c(ccc3ccccc32)c1Nc1ccccc1OC,inactive: 4.28%
24,Cc1ccc(S(=O)(=O)CCC(=O)Nc2ccc(Br)cc2C)cc1,inactive: 2.02%
25,O=C(NCCc1csc(-c2ccc(F)cc2)n1)c1cccs1,inactive: 3.89%

row,Compound,"activity change, negative = inhibition"
1,O=C(NC1CC(=O)N(c2ccc3c(c2)OCCO3)C1)c1c(F)cccc1Cl (configuration not stated),inactive: -0.979%
2,COc1ccc(NC(=O)Cn2c(=O)cc(C)c3c(C)nn(-c4cccc(Cl)c4C)c32)cc1OC,inactive: -0.267%
3,COc1ccc(-c2noc(CSc3nnc(Cc4ccccc4)n3-c3ccccc3)n2)cc1OC,inactive: -5.25%
4,CCOC(=O)c1cc(-c2ccccc2)n(CC(=O)NC2CCC(C)CC2)c1C (configuration not stated),inactive: -2.24%
5,Cc1ccc2c(c1)c(=O)c(C(=O)c1ccc3c(c1)OCO3)cn2Cc1cccc(F)c1,inactive: -6.67%
6,COCCNc1oc(-c2ccc(COc3ccc(OC)cc3)o2)nc1C#N,inactive: -12.4%
7,Cc1ccc(NC(=O)CSc2nc3ccccc3c3nc(CCc4c(C)n[nH]c4C)nn23)c(C)c1,inactive: -6.88%
8,Cc1ccc(-c2nn(-c3ccc(F)cc3F)c3c2cnc2c(F)cccc23)cc1,inactive: 2.67%
9,Cc1ccccc1C(=O)Nc1nc2nc(C)c(C)c(=O)n2[nH]1,inactive: -0.204%
10,CCCc1nn2c(=O)cc(COC(=O)c3ccc(NC(=O)CCc4ccccc4)cc3)nc2s1,inactive: 27.4%
11,Cc1nc2c(C(=O)O)cnn2c(C)c1Cc1ccccc1,inactive: 4.58%
12,Cc1ccc2nc(N3CCN(c4cccc(Cl)c4)CC3)c3nnnn3c2c1,inactive: -2.78%
13,Cc1ccc(C(=O)CSc2ncc3c(n2)-c2ccccc2N(Cc2ccc(Cl)cc2)S3(=O)=O)cc1,inactive: 2.85%
14,COc1cccc(NC(=O)c2sc3nc4n(c(=O)c3c2C)CCC4)c1,inactive: -3.61%
15,CCOC(=O)c1cccc(NC(=O)c2cc(S(=O)(=O)N3CCCC(C)C3)cn2C)c1 (configuration not stated),inactive: 0%
16,CC1=C(C(N)=O)C(c2ccc(C)cc2)n2nc(SCc3ccccc3F)nc2N1 (configuration not stated),inactive: 1.78%
17,CC(=O)Nc1ccccc1-c1nc2ccccc2n(CC(=O)c2ccc(Br)cc2)c1=O,inactive: 0%
18,COc1cc(C2C(=O)N(C3CCCCC3)CC(=O)N2CCC2=CCCCC2)ccc1OC(C)C (configuration not stated),inactive: 0%
19,COc1cccc(CNC(=O)CSc2nnc(C)c3c(C)n(-c4ccccc4)nc23)c1OC,inactive: -13.9%
20,CCOC(=O)C1CCCN(C(=O)Cn2ncc3c(C)n(Cc4ccccc4F)c(C)c3c2=O)C1 (configuration not stated),inactive: -7.49%
21,Cc1cc(C)cc(NC2=C(c3ccccc3)C(=O)c3ccccc32)c1,inactive: -0.0983%
22,COC(=O)CNC(c1ccccc1)c1cc(Br)ccc1NC(=O)c1ccccc1 (configuration not stated),inactive: 15.2%
23,COc1cccc(-n2cc(C(=O)Nc3cc(OC)c(OC)c(OC)c3)c3ccccc3c2=O)c1,inactive: -17%
24,CCc1cccc(C)c1NC(=O)C1CCN(c2nn3c(=O)cc(C)nc3s2)CC1,inactive: -0.954%
25,COc1ccc(-c2cc(C(F)(F)F)nc(SCC(=O)N3CCCCC3C)n2)cc1OC (configuration not stated),inactive: -1.68%

row,Compound,"activity change, negative = inhibition"
1,Cc1onc(-c2c(F)cccc2Cl)c1C(=O)Nc1ccc(OC(C)C)cc1,inactive: -13%
2,Cc1ccc2oc(=O)c3cc(C(=O)Nc4ccccc4C(N)=O)sc3c2c1,inactive: 0.571%
3,COc1ccc(CCNC(=O)c2cc3c(s2)-c2ccccc2OC3)cc1OC,inactive: -0.204%
4,Fc1ccc(N2CCN(c3ncnc4c3nc3n4CCCCC3)CC2)cc1,inactive: 3.98%
5,Cc1cccc(NC(=O)Nc2ccc(Br)cc2)n1,inactive: 5.62%
6,O=C1CCCc2cc(S(=O)(=O)NCC3CCC(C(=O)NCc4ccccc4Cl)CC3)ccc2N1 (configuration not stated),inactive: -14.1%
7,CCOCCCn1c(=N)c(C(=O)NCc2cccnc2)cc2c(=O)n3cc(C)ccc3nc21,inactive: 1.7%
8,CCOC(=O)c1cnc2c(ccc3ccccc32)c1Nc1ccc(OCC)cc1,inactive: 6.29%
9,COc1ccc(S(=O)(=O)c2c(O)c3ccc(C(=O)NCc4ccccc4)cc3[nH]c2=O)cc1,inactive: 3.41%
10,Cc1ccc(-n2nc3c(N4CCC(C(=O)NC(C)c5ccccc5)CC4)nnc(C)c3c2C)cc1 (configuration not stated),inactive: -1.33%
11,CCOc1ccc(Nc2cc(C)nc3nc(Cc4ccc(Cl)cc4)nn23)cc1,inactive: 0.0534%
12,COc1ccccc1N1CCN(C(=O)c2c(C)oc3ncn(CC(C)C)c(=O)c23)CC1,inactive: -5.77%
13,O=C(Cn1ccc2ccccc2c1=O)NCCC(=O)Nc1ccc(F)cc1F,inactive: -11.9%
14,CCN(CC)Cc1c(NC(=O)c2ccc(OC)cc2)sc2c1CCCC2,inactive: -3.44%
15,COc1ccc(CCNC(=O)Cn2c(=O)c3cccn3c3ccc(F)cc32)c(OC)c1,inactive: -18.3%
16,CC(=O)Nc1ccc(Nc2nc3c(S(=O)(=O)c4cccc(Cl)c4)nnn3c3ccsc23)cc1,inactive: 0.426%
17,COc1ccc(-c2cc(C(=O)Oc3cccc(C)c3)c3cc(C)ccc3n2)cc1,inactive: 0.371%
18,COc1ccc(CCNC(=O)c2cnc3sc(N4CCCCC4)nn3c2=O)cc1OC,inactive: -1.37%
19,Cc1oc2ncn(CC(C)C)c(=O)c2c1C(=O)NCCCN1CCC(C)CC1,inactive: -5.2%
20,O=C(COc1ccccc1F)OCc1cc(=O)n2nc(C3CC3)sc2n1,inactive: -8.86%
21,Cc1cc(C)cc(-n2c(C)nc3cc(C(=O)NCc4ccccc4Cl)ccc32)c1,inactive: 1.51%
22,COc1cccc(C(=O)Nc2ccc(-n3nncc3-c3ccccc3)cc2)c1,inactive: 18.1%
